Reference: patent US20250263499A1 (SHENGHE CHINA BIOPHARMACEUTICAL, published 2025)
Changes are numbered by the printed parent chain. Values belong to the binder of their own block, whether it stands above or below them.

Target: T1, human CD24 protein (ACRO) (human, UniProt P25063 27-59)
T1 construct: also called analyte human CD24 protein
T1 chain (looked up): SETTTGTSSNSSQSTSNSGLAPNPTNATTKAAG
Experiment: BLI (ForteBio Octet RED96e), antibody immobilised, human CD24 protein as analyte
Protocol: ForteBio […] (BLI) was used to detect the affinity of humanized antibodies. The sample to be tested (solidified) was diluted to 20 μg/mL with 0.02% PBST (buffer). The analyte human CD24 protein (ACRO) was diluted to 100 nM with 0.02% PBST (buffer) as the initial concentration, and then diluted by double gradient for 7 gradients starting from this concentration, and a negative control (buffer) was performed.
The molecular interaction analysis instrument (ForteBio; Octet RED96e) was operated, and 200 μL of curing buffer (0.02% PBST) was added to a pre-wetted plate, and the sensor was pre-wetted for 5-10 min. Diluted samples and other reagents for assay were added into wells in the sample plate corresponding to the pre-wetted sensor.

B1: humanized antibody hu-02-L2H6 (antibody, human IgG1, kappa)
heavy: EVQLQESGPGLVKPSQTLSLTCTVSGYSITSGYTWHWIRQFPGNKLEWIGHIQYTGNTKYNPSLESRVTISVDTSKNQFSLKLSSVTAADTATYYCARGSTNSNDYWGQGTLVTVSS[human IgG1 constant region not written out]
light: DIVMTQSPDSLAVSLGERATINCKSSQSLLYSNDQKNYLAWYQQKPGQSPKLLIYWASTRESGVPDRFSGSGSGTDFTLTISSLQAEDVAVYYCQQYFIYPLTFGGGTKLELKRTVAAPSVFIFPPSDEQLKSGTASVVCLLNNFYPREAKVQWKVDNALQSGNSQESVTEQDSKDSTYSLSSTLTLSKADYEKHKVYACEVTHQGLSSPVTKSFNRGEC
notes: Humanized from ms-02: light chain L2, heavy chain H6
Kd: 25.8 nM

B2: humanized antibody hu-02-L2H4 (antibody, human IgG1, kappa)
heavy: B1 heavy with E1Q, F41H
light: B1 light
notes: Humanized from ms-02: light chain L2, heavy chain H4
Kd: 27.9 nM

B5: humanized antibody hu-02-L3H1 (antibody, human IgG1, kappa)
heavy: B1 heavy with E1Q, F41H, N44K, K45G, T93V
light: B1 light with D9S
notes: Humanized from ms-02: light chain L3, heavy chain H1
Kd: 44.7 nM

B6: humanized antibody hu-02-L3H3 (antibody, human IgG1, kappa)
heavy: B1 heavy with E1Q, F41H, K45G
light: B1 light with D9S
notes: Humanized from ms-02: light chain L3, heavy chain H3
Kd: 43.5 nM

B8: humanized antibody hu-02-L2H2 (antibody, human IgG1, kappa)
heavy: B1 heavy with E1Q, F41H, N44K, K45G
light: B1 light
notes: Humanized from ms-02: light chain L2, heavy chain H2
Kd: 35.8 nM

B14: humanized antibody hu-02-L2H1 (antibody, human IgG1, kappa)
heavy: B1 heavy with E1Q, F41H, N44K, K45G, T93V
light: B1 light
notes: Humanized from ms-02: light chain L2, heavy chain H1
Kd: 32.7 nM

Results, then the binder that gave them:

Kd: 13.5 nM
B3: humanized antibody hu-02-L3H7 (antibody, human IgG1, kappa)
heavy: B1 heavy with V68I, V72R
light: B1 light with D9S
notes: Humanized from ms-02: light chain L3, heavy chain H7

Kd: 22.7 nM
B4: humanized antibody hu-02-L3H2 (antibody, human IgG1, kappa)
heavy: B1 heavy with E1Q, F41H, N44K, K45G
light: B1 light with D9S
notes: Humanized from ms-02: light chain L3, heavy chain H2

Kd: 32.5 nM
B7: humanized antibody hu-02-L2H3 (antibody, human IgG1, kappa)
heavy: B1 heavy with E1Q, F41H, K45G
light: B1 light
notes: Humanized from ms-02: light chain L2, heavy chain H3

Kd: 32.6 nM
B9: humanized antibody hu-02-L3H4 (antibody, human IgG1, kappa)
heavy: B1 heavy with E1Q, F41H
light: B1 light with D9S
notes: Humanized from ms-02: light chain L3, heavy chain H4

Kd: 29.5 nM
B10: humanized antibody hu-02-L3H6 (antibody, human IgG1, kappa)
heavy: B1 heavy
light: B1 light with D9S
notes: Humanized from ms-02: light chain L3, heavy chain H6

Kd: 24.5 nM
B11: humanized antibody hu-02-L3H5 (antibody, human IgG1, kappa)
heavy: B1 heavy with E1Q
light: B1 light with D9S
notes: Humanized from ms-02: light chain L3, heavy chain H5

Kd: 12.3 nM
B12: humanized antibody hu-02-L2H7 (antibody, human IgG1, kappa)
heavy: B1 heavy with V68I, V72R
light: B1 light
notes: Humanized from ms-02: light chain L2, heavy chain H7

Kd: 8.23 nM
B13: humanized antibody hu-02-L2H8 (antibody, human IgG1, kappa)
heavy: B1 heavy with I49M, V68I, V72R
light: B1 light
notes: Humanized from ms-02: light chain L2, heavy chain H8

Kd: 10 nM
B15: humanized antibody hu-02-L3H8 (antibody, human IgG1, kappa)
heavy: B1 heavy with I49M, V68I, V72R
light: B1 light with D9S
notes: Humanized from ms-02: light chain L3, heavy chain H8
